The other results are listed elsewhere or left out. Single values are uncertain, as repeats are few or missing.
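Further: cells treated in 1,536-well plates, then fixed and DAPI-stained, with nuclei counted from automated high-throughput microscope images.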

The assay deals with COLO792. In words: cell count relative to DMSO control; melanoma cells; higher = more viable cells. The settings on record: library dose: standard library concentration; 72 h.
On to `Cc1cc(Nc2cc(N3CCN(C)CC3)nc(Sc3ccc(NC(=O)C4CC4)cc3)n2)n[nH]1` [Tozasertib] + CC(=O)O[C@@]12CO[C@@H]1C[C@H](O)[C@@]1(C)C(=O)[C@H](O)C3=C(C)[C@@H](OC(=O)[C@H](O)[C@@H](NC(=O)OC(C)(C)C)c4ccccc4)C[C@@](O)([C@@H](OC(=O)c4ccccc4)[C@H]21)C3(C)C [Docetaxel] (first compound 0.03 µM, partner dose 0.0005 µM), for which the cell count came out at 26.9%.
Consider `CC[C@]1(O)C[C@H]2CN(CCc3c([nH]c4ccccc34)[C@@](C(=O)OC)(c3cc4c(cc3OC)N(C=O)[C@H]3[C@@](O)(C(=O)OC)[C@H](OC(C)=O)[C@]5(CC)C=CCN6CC[C@]43[C@@H]65)C2)C1` [vincristine] + Oc1nc(-c2ccc(C(F)(F)F)cc2)nc2c1CSCC2 [XAV939] (first compound 0.0005 µM, partner dose 10 µM), for which the cell count came out at 77.1%.
The figure for `CC[C@]1(O)C[C@H]2CN(CCc3c([nH]c4ccccc34)[C@@](C(=O)OC)(c3cc4c(cc3OC)N(C=O)[C@H]3[C@@](O)(C(=O)OC)[C@H](OC(C)=O)[C@]5(CC)C=CCN6CC[C@]43[C@@H]65)C2)C1` [vincristine] + c1cc(-c2cnn3cc(-c4ccc(OCCN5CCCCC5)cc4)cnc23)ccn1 [Dorsomorphin] (first compound 0.0005 µM, partner dose 2 µM) is 59.3%.
`Cc1cc(Nc2cc(N3CCN(C)CC3)nc(Sc3ccc(NC(=O)C4CC4)cc3)n2)n[nH]1` [Tozasertib] + COc1ccc(-c2ccc3c(N4CCOCC4)nc(N4C[C@@H](C)O[C@@H](C)C4)nc3n2)cc1CO [KU0063794] (first compound 0.03 µM, partner dose 0.1 µM): the cell count is 59.5%.
Under `CC[C@]1(O)C[C@H]2CN(CCc3c([nH]c4ccccc34)[C@@](C(=O)OC)(c3cc4c(cc3OC)N(C=O)[C@H]3[C@@](O)(C(=O)OC)[C@H](OC(C)=O)[C@]5(CC)C=CCN6CC[C@]43[C@@H]65)C2)C1` [vincristine] + O=C(Nc1cc(C(F)(F)F)cc(C(F)(F)F)c1)c1cc(Cl)ccc1O [IMD0354] (first compound 0.0005 µM, partner dose 0.08 µM) stands 75.4%.
Under `N#CC[C@H](C1CCCC1)n1cc(-c2ncnc3[nH]ccc23)cn1` [ruxolitinib] + Nc1cccc2c1CN(C1CCC(=O)NC1=O)C2=O [lenalidomide] (first compound 5 µM, partner dose 5 µM) stands 81.2%; under `CC[C@]1(O)C[C@H]2CN(CCc3c([nH]c4ccccc34)[C@@](C(=O)OC)(c3cc4c(cc3OC)N(C=O)[C@H]3[C@@](O)(C(=O)OC)[C@H](OC(C)=O)[C@]5(CC)C=CCN6CC[C@]43[C@@H]65)C2)C1` [vincristine] + COCC[n+]1c2c(n(Cc3cnccn3)c1C)C(=O)c1ccccc1C2=O [YM155] (first compound 0.0005 µM, partner dose 0.002 µM), 66.2%; under `Cc1cc(Nc2cc(N3CCN(C)CC3)nc(Sc3ccc(NC(=O)C4CC4)cc3)n2)n[nH]1` [Tozasertib] + O=C(CCCCCCC(=O)Nc1ccccc1)NO [vorinostat] (first compound 0.03 µM, partner dose 0.4 µM), 45.9%.
Under `N#CC[C@H](C1CCCC1)n1cc(-c2ncnc3[nH]ccc23)cn1` [ruxolitinib] + CN(c1ncccc1CNc1nc(Nc2ccc3c(c2)CC(=O)N3)ncc1C(F)(F)F)S(C)(=O)=O [PF562271] (first compound 5 µM, partner dose 0.4 µM) stands 61.2%.
Take `N#CC[C@H](C1CCCC1)n1cc(-c2ncnc3[nH]ccc23)cn1` [ruxolitinib] + CC(=O)O[C@@]12CO[C@@H]1C[C@H](O)[C@@]1(C)C(=O)[C@H](O)C3=C(C)[C@@H](OC(=O)[C@H](O)[C@@H](NC(=O)OC(C)(C)C)c4ccccc4)C[C@@](O)([C@@H](OC(=O)c4ccccc4)[C@H]21)C3(C)C [Docetaxel] (first compound 5 µM, partner dose 0.0005 µM): the cell count is 16.5%.
The figure for `N#CC[C@H](C1CCCC1)n1cc(-c2ncnc3[nH]ccc23)cn1` [ruxolitinib] + C=C(c1ccc(C(=O)O)cc1)c1cc2c(cc1C)C(C)(C)CCC2(C)C [Bexarotene] (first compound 5 µM, partner dose 10 µM) is 104%; for `CC[C@]1(O)C[C@H]2CN(CCc3c([nH]c4ccccc34)[C@@](C(=O)OC)(c3cc4c(cc3OC)N(C=O)[C@H]3[C@@](O)(C(=O)OC)[C@H](OC(C)=O)[C@]5(CC)C=CCN6CC[C@]43[C@@H]65)C2)C1` [vincristine] + O=S(=O)(c1ccccc1)N(CC(F)(F)F)c1ccc(C(O)(C(F)(F)F)C(F)(F)F)cc1 [T0901317] (first compound 0.0005 µM, partner dose 7 µM) it is 119%; for `Cc1cc(Nc2cc(N3CCN(C)CC3)nc(Sc3ccc(NC(=O)C4CC4)cc3)n2)n[nH]1` [Tozasertib] + COc1ccc(C2=N[C@@H](c3ccc(Cl)cc3)[C@@H](c3ccc(Cl)cc3)N2C(=O)N2CCNC(=O)C2)c(OC(C)C)c1 [Nutlin-3] (first compound 0.03 µM, partner dose 0.5 µM) it is 82.9%.
Turning to `CC[C@]1(O)C[C@H]2CN(CCc3c([nH]c4ccccc34)[C@@](C(=O)OC)(c3cc4c(cc3OC)N(C=O)[C@H]3[C@@](O)(C(=O)OC)[C@H](OC(C)=O)[C@]5(CC)C=CCN6CC[C@]43[C@@H]65)C2)C1` [vincristine] + CS(=O)(=O)c1ccc(C(=O)Nc2ccc(Cl)c(-c3ccccn3)c2)c(Cl)c1 [vismodegib] (first compound 0.0005 µM, partner dose 5 µM), the cell count was 103%.
The figure for `CC[C@]1(O)C[C@H]2CN(CCc3c([nH]c4ccccc34)[C@@](C(=O)OC)(c3cc4c(cc3OC)N(C=O)[C@H]3[C@@](O)(C(=O)OC)[C@H](OC(C)=O)[C@]5(CC)C=CCN6CC[C@]43[C@@H]65)C2)C1` [vincristine] + C#Cc1cccc(Nc2ncnc3cc(OCCOC)c(OCCOC)cc23)c1 [erlotinib] (first compound 0.0005 µM, partner dose 4 µM) is 26.3%; for `Cc1cc(Nc2cc(N3CCN(C)CC3)nc(Sc3ccc(NC(=O)C4CC4)cc3)n2)n[nH]1` [Tozasertib] + Cc1cn(-c2cc(NC(=O)c3ccc(C)c(Nc4nccc(-c5cccnc5)n4)c3)cc(C(F)(F)F)c2)cn1 [nilotinib] (first compound 0.03 µM, partner dose 1 µM) it is 84.4%.
The figure for `Cc1cc(Nc2cc(N3CCN(C)CC3)nc(Sc3ccc(NC(=O)C4CC4)cc3)n2)n[nH]1` [Tozasertib] + O=C(O)C(=O)Nc1sc2c(c1C(=O)O)CCNC2 [TCS401] (first compound 0.03 µM, partner dose 8.33333 µM) is 93.1%; for `Cc1cc(Nc2cc(N3CCN(C)CC3)nc(Sc3ccc(NC(=O)C4CC4)cc3)n2)n[nH]1` [Tozasertib] + O=S(=O)(c1ccccc1)N(CC(F)(F)F)c1ccc(C(O)(C(F)(F)F)C(F)(F)F)cc1 [T0901317] (first compound 0.03 µM, partner dose 7 µM) it is 81.2%.
Under `CC[C@]1(O)C[C@H]2CN(CCc3c([nH]c4ccccc34)[C@@](C(=O)OC)(c3cc4c(cc3OC)N(C=O)[C@H]3[C@@](O)(C(=O)OC)[C@H](OC(C)=O)[C@]5(CC)C=CCN6CC[C@]43[C@@H]65)C2)C1` [vincristine] + O=C(/C=C/c1cccnc1)NCCCCC1CCN(C(=O)c2ccccc2)CC1 [FK866] (first compound 0.0005 µM, partner dose 0.05 µM) stands 42.7%; under `Cc1cc(Nc2cc(N3CCN(C)CC3)nc(Sc3ccc(NC(=O)C4CC4)cc3)n2)n[nH]1` [Tozasertib] + OCCn1cc(-c2cnc3nnn(Cc4ccc5ncccc5c4)c3n2)cn1 [PF04217903] (first compound 0.03 µM, partner dose 5 µM), 66.1%.
As to `CC[C@]1(O)C[C@H]2CN(CCc3c([nH]c4ccccc34)[C@@](C(=O)OC)(c3cc4c(cc3OC)N(C=O)[C@H]3[C@@](O)(C(=O)OC)[C@H](OC(C)=O)[C@]5(CC)C=CCN6CC[C@]43[C@@H]65)C2)C1` [vincristine] + C[C@@H]1CCN(C(=O)CC#N)C[C@@H]1N(C)c1ncnc2[nH]ccc12 [CP690550] (first compound 0.0005 µM, partner dose 5 µM), the cell count turned out to be 84.5%.
The figure for `Cc1cc(Nc2cc(N3CCN(C)CC3)nc(Sc3ccc(NC(=O)C4CC4)cc3)n2)n[nH]1` [Tozasertib] + CCCCCCCCCCCCCCCCCCOP(=O)([O-])OC1CC[N+](C)(C)CC1 [Perifosine] (first compound 0.03 µM, partner dose 2 µM) is 93.7%; for `CC[C@]1(O)C[C@H]2CN(CCc3c([nH]c4ccccc34)[C@@](C(=O)OC)(c3cc4c(cc3OC)N(C=O)[C@H]3[C@@](O)(C(=O)OC)[C@H](OC(C)=O)[C@]5(CC)C=CCN6CC[C@]43[C@@H]65)C2)C1` [vincristine] + CCCS(=O)(=O)Nc1ccc(F)c(C(=O)c2c[nH]c3ncc(Cl)cc23)c1F [PLX4720] (first compound 0.0005 µM, partner dose 0.4 µM) it is 111%.
The figure for `Cc1cc(Nc2cc(N3CCN(C)CC3)nc(Sc3ccc(NC(=O)C4CC4)cc3)n2)n[nH]1` [Tozasertib] + Cc1nc(Nc2ncc(C(=O)Nc3c(C)cccc3Cl)s2)cc(N2CCN(CCO)CC2)n1 [dasatanib] (first compound 0.03 µM, partner dose 0.02 µM) is 41.3%.
